Laboratory results as given in PubChem BioAssay AID1631 (National Center for Advancing Translational Sciences (NCATS), 2009).
Screen size: about 260,000 compounds; about 890 (0.34%) were called active. Inconclusive means that the source gave no clear call. Such entries were picked first, then a sample of the others. The call rests on the fitted dose curve; in most records, active means well fitted activation curve with a large enough effect; inconclusive means small, poorly fitted or top-dose-only effect; inactive means no such curve, though single readings can be large or run the other way. Potencies beside an inconclusive call are fits to weak or partial responses and may not hold up.

target: Pyruvate kinase PKM (Homo sapiens) (UniProt P14618); experiment: qHTS Assay for Activators of Human Muscle isoform 2 Pyruvate Kinase; conditions: purified PKM2, Kinase-Glo ATP luminescence; Potency: activation; activation: at 57.5 µM (top of the series), 0% is enzyme alone, no compound; further: nearly all actives have a fitted effect of over 55% in size
Procedure, shortened: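 Purified hPK-M2 (>95% pure) converted ADP (0.1 mM final) to ATP with 0.5 mM PEP in 50 mM imidazole pH7.2, KCl, MgCl2, Tween 20, BSA; 1 h at room temperature. ATP detected by Kinase-Glo luminescence.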
On the % scale 0 is the no-effect control and ±100 the full control effect; potency means the concentration at half of the fitted maximal effect; tags describe the fitted curve by direction and shape.

UniProt P14618, sequence (P14618 whole entry, looked up, canonical isoform): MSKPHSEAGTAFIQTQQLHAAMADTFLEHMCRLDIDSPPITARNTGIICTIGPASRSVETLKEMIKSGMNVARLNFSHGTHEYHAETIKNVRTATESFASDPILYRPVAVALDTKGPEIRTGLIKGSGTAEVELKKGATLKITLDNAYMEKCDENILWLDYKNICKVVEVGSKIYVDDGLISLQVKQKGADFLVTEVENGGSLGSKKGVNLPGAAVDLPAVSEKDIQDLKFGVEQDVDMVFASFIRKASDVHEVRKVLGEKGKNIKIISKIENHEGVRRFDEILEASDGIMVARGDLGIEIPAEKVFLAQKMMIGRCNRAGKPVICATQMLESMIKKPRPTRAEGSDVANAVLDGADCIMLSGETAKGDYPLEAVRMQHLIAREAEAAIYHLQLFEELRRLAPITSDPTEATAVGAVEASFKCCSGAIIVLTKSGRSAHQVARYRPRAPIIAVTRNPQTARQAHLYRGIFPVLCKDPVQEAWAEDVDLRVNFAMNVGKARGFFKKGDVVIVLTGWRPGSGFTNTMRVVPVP

activation, inactive:
Cc1ccc(CS/C(Nc2ccccc2C)=C(\C#N)C(N)=O)c(C)c1 -12.3%
COc1ccccc1OCC#CCNC1CCCCC1C (stereo not given) 2.15%
CCC(=O)NC(=S)Nc1cccc(NC(=O)c2ccccc2Cl)c1 -11.5%
CCSc1nc2c(cnn2-c2ccccc2)c(=O)n1N -4.16%
COc1ccc(C(C)C)cc1S(=O)(=O)NCCCn1ccnc1 -1.29%
COc1cc([N+](=O)[O-])ccc1NC(=O)N1CCCCCC1 6.21%
Cc1nn(Cc2ccccc2)c(C)c1/C=N/NC(=O)c1ccccc1O 3.89%
CCOC(=O)c1oc2cc(O)c(CC)cc2c(=O)c1-c1cscn1 -6.13%
CC(C)C(c1nnnn1Cc1ccc(F)cc1)N1CCN(c2ccc(O)cc2)CC1 (stereo not given) -10.3%
CC(C)Cc1nc(S(=O)(=O)c2ccc(Cl)cc2)c(N2CCOCC2)o1 -6.34%
Cn1c(CSCc2ccccc2Cl)n[nH]c1=S 17.9%
NS(=O)(=O)c1ccc(NC(=S)NC(=O)c2cccs2)cc1 1.76%
Cc1c(C(=O)NC(C)CCc2ccccc2)cccc1[N+](=O)[O-] (stereo not given) -0.768%
O=c1oc2ccccc2nc1/C=C(O)/C=C\c1ccccc1 -2.4%
CCOCCCNC(=S)NCCCNc1nc2c(C)cc(C)cc2cc1C#N 2.46%
Cc1ccccc1-n1c(-c2ccncc2)n[nH]c1=S 0.279%

Potency, active:
COc1ccc(S(=O)(=O)N2CCN(S(=O)(=O)c3ccc4c(c3)OCCO4)CC2)cc1C 3.55 µM
CCOc1ncccc1C(=O)NCCN1C(=O)S/C(=C/c2cccs2)C1=O 15.8 µM
Cc1c(Cc2ccccc2)c(=O)oc2c(O)c(O)ccc12 20 µM
COc1ccc(S(=O)(=O)N2CCN(C(=O)NCc3ccccc3)CC2)cc1 7.08 µM
O=S(=O)(c1ccc2c(c1)OCCO2)N1CCN(Cc2ccc3c(c2)OCO3)CC1 3.55 µM

Potency, inconclusive:
c1coc(CN(Cc2ccco2)c2ncnc3c2oc2ccccc23)c1 8.91 µM [rising, partial curve, poor fit]
CCNc1ccc(S(=O)(=O)N(C)C)cc1NCC(=O)Nc1ccccc1Br 39.8 µM [rising, single point]
O=C(CSc1cccc2cccnc12)NCc1ccco1 14.1 µM [rising, partial curve]
Cn1cc(P(=O)(N2CCOCC2)N2CCOCC2)cc1P(=S)(N1CCOCC1)N1CCOCC1 31.6 µM [rising, single point]
O=C(CSc1ncnc2c1oc1ccccc12)NCc1ccco1 25.1 µM [rising, single point]
COC(=O)c1c(NC(=O)CN2CCN(C(=O)c3ccco3)CC2)c2c(C)cccc2n1C 22.4 µM [rising, single point]
Cc1ccccc1-c1nnn(CC(=O)N2CCN(S(=O)(=O)c3ccc(Cl)cc3)CC2)n1 11.2 µM [rising, partial curve]
NC(=O)COC(=O)/C=C/c1ccc2ccccc2n1 39.8 µM [rising, single point]
CSc1sc(-c2ccnc(=S)[nH]2)c(-c2ccccc2)c1C#N 39.8 µM [rising, single point]
CCOC(=O)N1CCN(Cc2nc(-c3cccs3)no2)CC1 39.8 µM [rising, single point]
C=CCN1CCc2c(cc(O)c(O)c2Cl)C(c2ccccc2)C1 (stereo not given) 15.8 µM [rising, partial curve]
CC(C)c1ccc(NC2CCCN(C(=O)c3cc(C(C)C)[nH]n3)C2)cc1 (stereo not given) 35.5 µM [rising, single point]
Cc1ccc(Nc2nc(-c3ccc(O)c(O)c3)cs2)nc1 2.82 µM [rising, full curve]
N#C/C(=C\Nc1ccc(Cl)cc1)S(=O)(=O)c1ccccn1 28.2 µM [rising, partial curve]
CCOC(=O)N1CCN(C(=O)c2ccc3c(=O)n(-c4ccc(OC)cc4)c(=S)[nH]c3c2)CC1 0.126 µM [rising, full curve, poor fit]
CCOC(=O)c1c(-c2ccc(C)o2)csc1NC(=O)CN(C)CC(=O)Nc1ccc(C)cc1 22.4 µM [rising, single point]
CCOC(=O)C1=C(Cc2ccc(C)cc2)C(=O)c2ccccc2C1=O 15.8 µM [rising, partial curve]
CCC(C)[C@@H](C(=O)Nc1ccc2c(c1)OCO2)N1Cc2ccccc2C1=O (stereo not given in full) 15.8 µM [rising, single point]
COc1cc2c(cc1OC)C(C(=O)N1CCCCC1)C(c1ccccc1F)N(C)C2=O (stereo not given) 39.8 µM [rising, single point]
COc1ccc(CN(CCC(c2ccccc2)c2ccco2)C(=O)c2ccco2)cc1 (stereo not given) 31.6 µM [rising, single point]
CCc1nn2c(N(C)CCO)cc(C)nc2c1-c1ccc(F)cc1 39.8 µM [rising, single point]
NNC(=O)CCc1nc2ccc(O)cc2[nH]1 25.1 µM [rising, partial curve, poor fit]
CC(C)COC(=O)NCC12C=CC(O1)C1C(=O)N(c3ccc(Cl)cc3)C(=O)C12 (stereo not given) 3.55 µM [rising, full curve, poor fit]
COc1ccc(C(=O)NC(=S)Nc2ccc(Cl)cn2)cc1OC 39.8 µM [rising, single point]
Cc1ccc(-c2nnn(CC(=O)N(CCN3CCOCC3)C(C(=O)NC3CCCC3)c3ccncc3)n2)o1 (stereo not given) 8.91 µM [rising, partial curve]
NC(=O)CC(NC(=O)Cc1cccc2ccccc12)c1ccc(NCCc2ccccc2F)c([N+](=O)[O-])c1 (stereo not given) 4.47 µM [rising, partial curve]
Cc1ccc(NC(=O)CCSc2nnc(C)o2)cc1 35.5 µM [rising, single point]
Cc1ccnc(SCc2cc(=O)c(OC(=O)c3ccc(S(=O)(=O)N4CCCC4)cc3)co2)n1 25.1 µM [rising, single point]
O=C(CN(CCc1ccccc1)S(=O)(=O)c1ccc(Br)cc1)N/N=C/c1ccccc1C(=O)O 6.31 µM [rising, single point]
CC(=O)N1CCN(c2ccc(NC(=O)c3cccc(C)c3)cc2)CC1 25.1 µM [rising, single point]
COc1cc(NC(=O)C2CCN(S(=O)(=O)c3ccc(Cl)cc3)CC2)ccc1-n1cnnn1 0.01 µM [rising, full curve, poor fit]
S=C(Nc1ccc2nc(-c3ccccn3)c(-c3ccccn3)nc2c1)N1CCCCCC1 11.2 µM [rising, partial curve]
Cc1ccc(-c2cc(C(=O)OCC(=O)N(C)C3CCS(=O)(=O)C3)c3ccccc3n2)o1 (stereo not given) 28.2 µM [rising, single point]
O=c1cc(CO)oc(C(Nc2ccccn2)c2cccc(F)c2)c1O (stereo not given) 11.2 µM [rising, single point]
COc1cccc(CNc2nc3ccccc3n2C)c1O 22.4 µM [rising, single point]
CC(=O)c1c(OC(=O)c2cccc(Cl)c2)c2ccccc2n1C 2.82 µM [rising, full curve]
Nc1nc(NCc2ccco2)nc(NCCO)c1[N+](=O)[O-] 22.4 µM [rising, single point]
CCc1ccc(C2=NNC(=Nc3c(C)n(C)n(-c4ccccc4)c3=O)SC2)cc1 25.1 µM [rising, single point]
Cc1[nH]n2c(=O)c(C#N)c(-c3ccccc3)nc2c1-c1ccccc1 31.6 µM [rising, partial curve, poor fit]
CCOc1ccc(NC(=O)CC2C(=O)N(C)C(=S)N2Cc2ccco2)cc1 (stereo not given) 14.1 µM [rising, partial curve, poor fit]
O=C(CCCc1nc2ccccc2s1)Nc1nccs1 28.2 µM [rising, single point]
Cc1ccc(NC(=O)COC(=O)CNC(=O)c2ccc3ccccc3c2)c([N+](=O)[O-])c1 28.2 µM [rising, single point]
O=C(CCC(=O)N1CCN(c2ccc(O)cc2)CC1)c1cccs1 7.94 µM [rising, partial curve]
CCCn1cnc2cc(NCc3ccccn3)ccc21 20 µM [rising, single point]
COc1cccc(NC(=O)CSc2nnc(-c3cc(C)n(-c4ccccc4)c3C)o2)c1 35.5 µM [rising, single point]
Cn1c(=O)n(Cc2ccc(F)cc2)c(=O)c2c1nc1n2CCCN1Cc1ccccc1 17.8 µM [rising, partial curve]
O=c1[nH]c(C(F)(F)F)nc2ccccc12 0.224 µM [rising, full curve, poor fit]
O=C(O)c1cc(Cl)c2c(c1)[C@@H]1C=CC[C@@H]1[C@H](c1ccc(S(=O)(=O)N3CCOCC3)cc1)N2 31.6 µM [rising, partial curve]
CCOC(=O)C(CO)(NC(C)=O)C(=O)OCC 7.94 µM [rising, single point]
